Data on 110 compounds can be found in PubChem BioAssay AID488969 (Vanderbilt High Throughput Screening Facility, 2010).

Structures are written as SMILES. The full ranking holds about 110,000 compounds; the median of “z-score” is about -0.1, and the highest 2% start at about 2. The list shows a part of the results. Calls of active or inactive are those of the source.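 How the source made its calls: active means z-score in the third read window above 3 or below -3; inactive means the rest.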

The target of this experiment is Metabotropic glutamate receptor 8 (Rattus norvegicus) (UniProt P70579). Nature of the experiment: rat mGluR8 modulators via GIRK flux, primary screen, cell-based, thallium flux, HTS (AID 488969). As to conditions: HEK293 rat mGluR8, GIRK (G protein-gated inwardly rectifying potassium channel) thallium flux, FluoZin2; at 10 µM; stronger effect = higher value; submaximal glutamate (EC20) added with thallium.
Chain of UniProt P70579 (P70579 whole entry, looked up): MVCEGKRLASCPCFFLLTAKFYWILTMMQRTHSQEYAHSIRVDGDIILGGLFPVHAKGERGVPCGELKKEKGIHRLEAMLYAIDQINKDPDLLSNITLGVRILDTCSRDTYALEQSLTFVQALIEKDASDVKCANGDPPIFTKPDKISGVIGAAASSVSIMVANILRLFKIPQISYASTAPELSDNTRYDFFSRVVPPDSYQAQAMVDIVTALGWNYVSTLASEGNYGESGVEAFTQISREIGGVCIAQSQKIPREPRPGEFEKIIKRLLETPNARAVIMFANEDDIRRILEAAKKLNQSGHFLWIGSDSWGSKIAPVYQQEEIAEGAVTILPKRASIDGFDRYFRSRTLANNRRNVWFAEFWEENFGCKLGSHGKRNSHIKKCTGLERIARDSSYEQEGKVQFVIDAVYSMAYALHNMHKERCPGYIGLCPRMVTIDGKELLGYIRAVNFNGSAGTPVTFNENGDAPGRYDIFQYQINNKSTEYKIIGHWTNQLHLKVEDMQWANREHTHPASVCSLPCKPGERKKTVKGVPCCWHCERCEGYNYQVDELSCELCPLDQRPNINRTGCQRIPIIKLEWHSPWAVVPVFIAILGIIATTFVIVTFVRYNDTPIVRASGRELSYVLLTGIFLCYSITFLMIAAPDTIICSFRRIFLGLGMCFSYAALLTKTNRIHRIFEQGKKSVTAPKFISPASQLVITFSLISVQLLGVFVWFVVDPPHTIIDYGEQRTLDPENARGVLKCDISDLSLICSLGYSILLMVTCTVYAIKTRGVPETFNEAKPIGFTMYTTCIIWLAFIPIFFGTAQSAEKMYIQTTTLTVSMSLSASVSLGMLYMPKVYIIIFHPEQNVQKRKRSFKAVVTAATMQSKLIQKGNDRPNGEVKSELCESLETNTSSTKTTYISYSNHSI
In the case of `CC1CCN(S(=O)(=O)c2cccc(C(=O)O)c2)CC1`, the z-score stood at 0.000459. Under `Cc1ccc(C(=O)N/N=C/c2sc(=O)n(Cc3cccc(C(=O)O)c3)c2Cl)cc1` stands -0.0929. Compound `CNC(=O)c1ccccc1NC(=O)c1ccco1` had a z-score of 0.283. The compound `Cc1ccc(S(=O)(=O)N2CCN(C(=O)CN3CCCCC3)C2C(C)C)cc1` (stereo not given) displayed a z-score of -0.0208. Under `C/C(=N\NC(=O)c1ccc(NS(=O)(=O)c2cccs2)cc1)c1ccc(C(C)(C)C)cc1` stands -0.518. Under `Cc1[nH]c2ccccc2c1C1(O)C(=O)N(Cc2ccc3c(c2)OCO3)c2ccccc21` (stereo not given) stands 0.17; under `O=C(Nc1ccc(Cl)c([N+](=O)[O-])c1)C(NCCCO)c1ccccc1` (stereo not given), 0.306; under `COc1ccc(N2C(C(C)=O)=NN(c3ccccc3)C2c2cccs2)cc1` (stereo not given), -1.15. Under `O=C(/C=C/Nc1cccc(C(F)(F)F)c1)C(F)(F)F` stands 0.118; under `COc1cc(F)ccc1S(=O)(=O)N1CCN(C23CC4CC(CC(C4)C2)C3)CC1`, -0.185.

With `C/C(=N\NC(=O)COc1ccc(C(C)(C)C)cc1)c1ccc(OC(F)F)cc1`, the z-score is 0.318. Under `Cc1ccc(OCCCC(=O)Nc2ccc(N3CCOCC3)cc2)cc1` stands 0.0795; under `Cc1ccc2[nH]c(=O)c(C(c3nnnn3C3CCCC3)N3CCCc4ccccc43)cc2c1` (stereo not given), 0.211; under `OC(CN1C2=NCCN2c2ccccc21)c1ccc2c(c1)OCO2` (stereo not given), -0.0192. In turn, `Cc1cc(OCCN2CCCCCC2)ccc1[N+](=O)[O-]` displayed a z-score of 0.379. Under `c1ccc(CCc2ccccc2-c2nc(-c3ccccn3)no2)cc1` stands 0.258; under `Cn1nc(C(=O)NNC(=O)COc2ccccc2)c2ccccc2c1=O`, -0.0385. As for `CCOc1ccc(Cl)cc1CNCCNCCO`, the figure is 0.172; as for `OC(CNCC1CCCO1)Cn1c2ccc(Br)cc2c2cc(Br)ccc21` (stereo not given), active: 3.72; as for `O=C(c1ccccc1)c1cc([N+](=O)[O-])ccc1N1CCCC1`, -1.47. As for `Cc1ccc(NC(=O)c2ccco2)c(NC(=O)CN2C(=O)c3ccccc3C2=O)c1`, the figure is -0.313; as for `CC(C)(C)C(=O)N1CCC(O)(CS(=O)(=O)Cc2ccc(Cl)cc2)CC1`, -0.121. Consider `Cc1ccc(-n2nc3c(c2NC(=O)c2ccc(OC(C)C)cc2)CS(=O)C3)cc1` (stereo not given), for which the z-score was -0.464. Under `N#Cc1ccc(C(=O)Nc2cc(S(=O)(=O)N3CCCC3)ccc2OCC(F)(F)F)cc1` stands -0.245; under `C=CCn1c(-c2cccn(Cc3ccc(Cl)cc3Cl)c2=O)n[nH]c1=S`, -0.0632; under `COc1cc(CC(=O)OCC(=O)c2ccc3c(c2)OCCO3)cc(OC)c1OC`, -0.307. As for `O=C(NCCSc1ccccc1)c1ccc(Br)cc1`, the figure is -0.433; as for `N#C/C(=C/c1cc(Br)cs1)C(=O)NCC1CCCO1` (stereo not given), -0.0741. As for `O=C(NCc1cccs1)c1cc(-c2cccc(Cl)c2)on1`, the figure is -1.01. The compound `COc1ccccc1NC(=O)CSc1nnc(C)n1CC1CCCO1` (stereo not given) showed a z-score of 0.373. Under `COc1ccc(C2CC(c3ccc4ccccc4c3OC(C)=O)=NN2C(=O)/C=C/c2ccccc2)cc1` (stereo not given) stands -0.112. Under `O=C(CSCc1ccc(Cl)cc1)Nc1ccc(-c2nnc(-c3ccccc3)o2)cc1` stands -0.47; under `O=C(NC(Cc1ccccc1)C(=O)O)c1ccc(S(=O)(=O)N2CCCCC2)cc1` (stereo not given), -0.916. As for `COc1cc(/C=C(/NC(=O)c2ccccc2)C(=O)Nc2ccc(O)cc2)c([N+](=O)[O-])cc1OC`, the figure is -0.493; as for `CN(C)c1nc(C(N)=O)nc(N2CCOCC2)n1`, 1.76; as for `CCC(Sc1nc2ccccc2c(=O)[nH]1)C(=O)O` (stereo not given), 0.219.

As for `COc1ccccc1CN(Cc1ccco1)S(=O)(=O)c1ccc(-n2cnnn2)c(OC)c1`, the z-score amounted to 0.201. Under `CCCC1=[N+](CC(=O)c2ccccc2)CCn2cccc21` stands 0.0891. Turning to `O=C(O/N=C/c1ccc2c(c1)OCO2)c1ccccc1Cl`, the z-score was 0.0816. Under `Cc1cc(Nc2ccccc2)nn1C(=O)c1ccc(Cl)cc1` stands -0.0996; under `Cc1cc(C)n(CC(=O)N2N=C(C(F)F)CC2(O)C(F)F)n1` (stereo not given), -0.229. As for `O=C(/C=C/c1ccccc1Cl)NCc1ccccc1`, the figure is -0.0585; as for `CCCC(C(=O)NC1CCCC1)N(Cc1ccc2c(c1)OCO2)C(=O)c1snc(C(N)=O)c1N` (stereo not given), -0.366; as for `Cc1ccc(-c2nnc(-n3ncc(C#N)c3N)c3ccccc23)cc1C`, 0.49. `CCOC(=O)CC(=O)CSc1ncc(C(=O)OCC)c(N)n1` displayed a z-score of 0.645. As for `Brc1ccccc1OCCOc1cccc2cccnc12`, the figure is -0.0856.

As to `CC(C)(C)N=C1NN=C(c2cc3ccccc3o2)CS1`, the z-score was -0.336.

For `CCCCn1c(SCC(=O)c2ccc(OCC)cc2)nc2cc(S(N)(=O)=O)ccc21`, the z-score is -0.238. `O=C(NCc1ccccn1)c1c(Cl)cccc1Cl` showed a z-score of 0.0849.

Turning to `O=C(Nc1nccs1)c1c(O)c2cccc3c2n(c1=O)CCC3`, the z-score came out at 0.325. As for `CN(CCO)c1ccc([N+](=O)[O-])cc1C(=O)O`, the figure is 0.404. As for `O=C(NCc1ccccc1)c1ccc(C(=O)N(C2CCCCC2)C2CCCCC2)cc1`, the figure is 0.259; as for `Cc1cc(=O)[nH]c(S/C=C/c2ccccc2)n1`, -0.0122; as for `COC(=O)CSC1=C(C#N)C(c2sccc2C)CC(=O)N1` (stereo not given), 0.174. `Cc1cc(=O)oc2cc(NC(=O)C3CC(=O)N(Cc4ccccc4)C3)ccc12` (stereo not given) showed a z-score of -0.14.

`Cc1sc(NC(=S)NC(=O)C2CCCCC2)c(C(N)=O)c1C`: the z-score is -0.146. For the compound `O=C(CSc1nnc2ccccn12)Nc1cccc(-c2nc3ccccc3s2)c1`, the z-score is -0.338. Under `CC(C(=O)OCC(=O)Nc1ccc2c(c1)OCO2)N1C(=O)c2ccccc2C1=O` (stereo not given) stands 0.35; under `COCCn1nnnc1C(c1ccccn1)N1CCN(c2cc(C)ccc2C)CC1` (stereo not given), -0.362; under `O=C(Cc1cc(=O)[nH]c(=O)[nH]1)NCCN1CCOCC1`, -0.206. As for `CCOC(=O)c1c(C)oc2c1c(C(c1cccnc1)N1CCOCC1)c(O)c1ccccc12` (stereo not given), the figure is -0.155; as for `O=C(Cc1cccs1)Nc1ccc(-c2nnc(-c3ccccc3)o2)cc1`, -0.166. Under `COc1cc(NC(=O)Cn2nnc(-c3ccccc3N)n2)cc(OC)c1` stands 0.794; under `FC(F)(F)c1cc(-c2ccccc2)nc(-n2cncn2)n1`, 1.2; under `O=C(CSc1nc2ccccc2[nH]1)Nc1nc(-c2ccc(Br)cc2)cs1`, -0.161. In turn, `COC(=O)c1cc(NC(=O)CSc2nnc(CN3CCOCC3)n2C)ccc1Cl` gave a z-score of -0.506.

For the compound `CC1Sc2n(c3ccccc3[n+]2C)N=C1c1ccccc1` (stereo not given), the z-score is -0.138. Under `CCOC(=O)c1sc(-c2ccccc2)cc1NC(=O)Nc1ccc([N+](=O)[O-])cc1` stands -0.179. Under `CCC(CCC(=O)Nc1nncs1)C(=O)O` (stereo not given) stands 0.562.

With `CCOc1ccc(CC(=O)Nc2c(C(N)=O)oc3ccc(Br)cc23)cc1OCC`, the z-score is -0.0702. `O=C(NC1CCCC1)c1ccc(CSCc2ccccc2F)o1` had a z-score of -1.68. As for `CC(C)(C)C(=O)[C@@H]1[C@@H]2C(=O)N(c3ccc4c(c3)OCCO4)C(=O)[C@@H]2C2c3ccccc3C=CN21` (stereo not given in full), the figure is 0.117; as for `Cc1nn(-c2ccccc2)c2sc(C(=O)NNC(=O)COc3cccc4ccccc34)cc12`, 0.232. Under `Cn1c(SCc2nc3ccccc3n2CCO)nc2ccccc21` stands -0.0415; under `CCn1c(SCc2c(F)cccc2Cl)nnc1-c1ccco1`, -0.892.

Compound `O=[N+]([O-])c1ccc(-c2ccn[nH]2)o1` returned a z-score of 0.158. As for `CC(=O)Nc1ccc(OCC(O)Cn2nc(C)c(Br)c2C)cc1` (stereo not given), the figure is 0.777. As for `COC(=O)c1cc(NC(=O)c2c(F)c(F)c(F)c(F)c2F)cc(C(=O)OC)c1`, the figure is -0.107; as for `Cc1ccc(-c2cc(C(=O)NCc3ccccn3)no2)cc1`, -0.475. `CC(C)c1ccc(C(CC(=O)c2ccc(Cl)cc2)C(=O)O)cc1` (stereo not given) returned a z-score of 0.0781. The compound `C=CCNc1nc(NCCO)nc(N2CCCC2)n1` returned a z-score of -0.225. Under `CCOc1ccccc1N1CCN(C(=O)Nc2ccc(F)c(Cl)c2)CC1` stands -0.531; under `CNS(=O)(=O)c1ccc(NC(=O)C2c3ccccc3Oc3ccccc32)cc1`, -0.0141; under `CCOC(=O)c1c(C)n(C)c2c(C)cc(O)c(OC(=O)CC)c12`, 0.126. Under `CCCCn1c(=N)n(CC(=O)c2ccco2)c2ccccc21` stands -0.268; under `O=C(CCl)N1N=C(c2ccco2)CC1c1cccs1` (stereo not given), -0.133. As for `CCN(CC)CCNC(=O)COc1ccc(Cl)cc1Cl`, the figure is -0.304.

In turn, `C/C(=N\NC(=S)NCc1ccccc1)c1ccc2ccccc2c1` displayed a z-score of 2.12. For the compound `COC(=O)c1ccc(NC(=O)CSC2=NCCN2)cc1`, the z-score is 0.00225. Under `CC(C)CNS(=O)(=O)c1ccc(CCC(=O)N2CCOCC2)cc1` stands -0.54. Under `Cc1ccc(-n2[nH]c(=O)c3cccnc32)cc1` stands 0.0489. For the compound `Cc1ccsc1C(=O)Nc1ccc2c(c1)OCCO2`, the z-score was -0.163.

For `Cc1ccc(NC(=O)CSc2nc3ccccc3c(=O)n2CCCC(=O)N2CCCC2)cc1`, the z-score was 0.165. Compound `Cc1cccc(NC(=O)CCN2C(=O)C3C4CCC(C4)C3C2=O)c1C` (stereo not given) showed a z-score of -0.197. The compound `CN1CCN(C(=O)c2ccc3c(=O)n4c(nc3c2)CCCCC4)CC1` displayed a z-score of 0.0326.

Compound `CC(=O)Nc1ccc(NC(=O)COC(=O)Cc2cccs2)cc1` registered a z-score of -0.0463. As for `COc1cc(C)c(C)cc1S(=O)(=O)N1CCCCC1c1cccnc1` (stereo not given), the figure is -0.191; as for `O=C1OC(c2ccccc2)=NC12CC2c1ccc(Cl)cc1` (stereo not given), -0.219. Under `CCOC(=O)C1CCN(S(=O)(=O)c2ccc(OCC)cc2)CC1` stands 0.207; under `CCSc1nc(N)c(C#N)c(-c2ccccc2Cl)c1C#N`, -0.236. Under `Cn1c(NC(=O)Cc2cccs2)cc(=O)n(C)c1=O` stands 0.422. `COc1ccc(N/C(=C(/C(Cl)=C(Cl)Cl)[N+](=O)[O-])n2nnc3ccccc32)cc1OC`: the z-score is -0.105. As for `O=C(COC(=O)c1ccccc1)Nc1ccccc1Sc1ccccc1`, the figure is -0.256; as for `COc1ccc(-n2ncc3c(NCCCN4CCOCC4)ncnc32)cc1`, -0.0546; as for `O=Cc1ccc(OC(=O)c2cc(Cl)nc3ccccc23)cc1`, -0.764. `Cn1c(=O)c(Sc2ccc(Cl)cc2)c(O)c2ccccc21` returned a z-score of -0.203. `COc1cc(/C=N/NC(=O)/C(=C/c2ccccc2)CCO)ccc1O` yielded a z-score of -0.0886. Regarding `COC(=O)c1ccc(N2C(=O)CC(N3CCOCC3)C2=O)cc1` (stereo not given), the z-score is -0.101. As for `Cc1cc(NC(=O)CCSc2ccccc2)ccc1Br`, the figure is -0.204; as for `CN1C(C)(C)CC(NC(=O)CCC(=O)NC2CC(C)(C)N(C)C(C)(C)C2)CC1(C)C`, 0.24.
